Assay results from a collection of fitness landscapes (doi:10.1126/science.1257360).
Some of the results follow.

B1: PhoQ; a variant is named by its letters at X, in order, P23837 (parent)
chain: MKKLLRLFFPLSLRVRFLLATAAVVLVLSLAYGMVALIGYSVSFDKTTFRLLRGESNLFYTLAKWENNKLHVELPENIDKQSPTMTLIYDENGQLLWAQRDVPWLMKMIQPDWLKSNGFHEIEADVNDTSLLLSGDHSIQQQLQEVREDDDDAEMTHSVAVNVYPATSRMPKLTIVVVDTIPVELKSSYMVWSWFIYVLSANLLLVIPLLWVAAWWSLRPIEALAKEVRELEEHNRELLNPATTRELTSLVRNLNRLLKSERERYDKYRTTLTDLTHSLKTPLXXLQXXLRSLRSEKMSVSDAEPVMLEQISRISQQIGYYLHRASMRGGTLLSRELHPVAPLLDNLTSALNKVYQRKGVNISLDISPEISFVGEQNDFVEVMGNVLDNACKYCLEFVEISARQTDEHLYIVVEDDGPGIPLSKREVIFDRGQRVDTLRPGQGVGLAVAREITEQYEGKIVAGESMLGGARMEVIFGRQHSAPKDE

Variants of: B1
Assay: enrichment ratio after two sorts for PhoP signalling (ratio (wild type AVST 3.29)); higher = more functional
Settings: with PhoP (E. coli)

| Variant | enrichment ratio |
| --- | --- |
| HGIV | ≤ 0.25 |
| VHQC | ≤ 0.25 |
| DQKF | ≤ 0.25 |
| HGDA | ≤ 0.25 |
| IIMR | ≤ 0.25 |
| QLMR | ≤ 0.25 |
| VEKK | ≤ 0.25 |
| NGPK | ≤ 0.25 |
| EMCF | ≤ 0.25 |
| LLHH | ≤ 0.25 |
| GVYL | ≤ 0.25 |
| EYKT | ≤ 0.25 |
| ELFN | 0.458 |
| EYWF | ≤ 0.25 |
| GWDP | ≤ 0.25 |
| TRSP | 0.734 |
| DDDA | ≤ 0.25 |
| KVTQ | ≤ 0.25 |
| LIYR | ≤ 0.25 |
| EMGN | ≤ 0.25 |
| KQLW | ≤ 0.25 |
| AFER | ≤ 0.25 |
| NLNY | ≤ 0.25 |
| MCDN | ≤ 0.25 |

| Variant | enrichment ratio |
| --- | --- |
| WKVC | ≤ 0.25 |
| NIRK | ≤ 0.25 |
| VRWV | ≤ 0.25 |
| RNRP | ≤ 0.25 |
| ARDG | ≤ 0.25 |
| NIVW | ≤ 0.25 |
| YHYR | ≤ 0.25 |
| GLTP | ≤ 0.25 |
| RYTT | ≤ 0.25 |
| NMTR | ≤ 0.25 |
| VHPN | ≤ 0.25 |
| LTLP | ≤ 0.25 |
| VWHS | ≤ 0.25 |
| TGRG | ≤ 0.25 |
| WFVK | ≤ 0.25 |
| RCFV | ≤ 0.25 |
| WLRP | ≤ 0.25 |
| DIDK | ≤ 0.25 |
| TCSY | 13.3 |
| WNAM | ≤ 0.25 |
| DLCC | ≤ 0.25 |
| GLSE | 5.82 |
| QVCQ | ≤ 0.25 |
| DCWD | ≤ 0.25 |

| Variant | enrichment ratio |
| --- | --- |
| NTAY | ≤ 0.25 |
| DMTL | ≤ 0.25 |
| PVAW | ≤ 0.25 |
| DACG | ≤ 0.25 |
| DIHV | ≤ 0.25 |
| MSVI | 5.83 |
| DVTD | ≤ 0.25 |
| FLPD | ≤ 0.25 |
| VVSC | ≤ 0.25 |
| TCWP | ≤ 0.25 |
| KECM | ≤ 0.25 |
| FMEH | ≤ 0.25 |
| VARR | ≤ 0.25 |
| VMNW | ≤ 0.25 |
| PNCI | ≤ 0.25 |
| DALV | ≤ 0.25 |
| TNRT | ≤ 0.25 |
| ENFP | ≤ 0.25 |
| KHSK | ≤ 0.25 |
| PMPK | ≤ 0.25 |
| DFGK | ≤ 0.25 |
| HPPV | ≤ 0.25 |
| FELV | 10.2 |
| SCMQ | 1.51 |

| Variant | enrichment ratio |
| --- | --- |
| RPPF | ≤ 0.25 |
| TFVP | ≤ 0.25 |
| AATP | ≤ 0.25 |
| PLKI | ≤ 0.25 |
| HSVF | ≤ 0.25 |
| VAGS | ≤ 0.25 |
| AQTG | 7.06 |
| WFMV | ≤ 0.25 |
| RPME | ≤ 0.25 |
| DCYG | ≤ 0.25 |
| ISEP | ≤ 0.25 |
| IDFD | ≤ 0.25 |
| DNSE | ≤ 0.25 |
| VNLI | 2.16 |
| MKHW | ≤ 0.25 |
| NLVW | ≤ 0.25 |
| AWAD | ≤ 0.25 |
| IRKN | ≤ 0.25 |
| GIMD | ≤ 0.25 |
| HWPA | ≤ 0.25 |
| LIHA | ≤ 0.25 |
| RTQI | ≤ 0.25 |
| DHTW | ≤ 0.25 |
| KNCD | ≤ 0.25 |

| Variant | enrichment ratio |
| --- | --- |
| QSWD | 22.4 |
| TGWA | 4.94 |
| LQEL | ≤ 0.25 |
| SRQF | ≤ 0.25 |
| HEIK | ≤ 0.25 |
| HPWN | ≤ 0.25 |
| DWAG | ≤ 0.25 |
| DDTR | ≤ 0.25 |
| MYTL | ≤ 0.25 |
| YEER | ≤ 0.25 |
| KGGP | ≤ 0.25 |
| FTND | ≤ 0.25 |
| FFNL | ≤ 0.25 |
| TQFR | ≤ 0.25 |
| PGHP | ≤ 0.25 |
| RASH | ≤ 0.25 |
| TAAG | 9.44 |
| RKWF | ≤ 0.25 |
| KKYF | ≤ 0.25 |
| SEPY | ≤ 0.25 |
| SVRF | 0.324 |
| HRAD | ≤ 0.25 |
| DVDH | ≤ 0.25 |
| WKAF | ≤ 0.25 |

| Variant | enrichment ratio |
| --- | --- |
| FLCD | ≤ 0.25 |
| KGPQ | ≤ 0.25 |
| RNFE | ≤ 0.25 |
| PCDD | ≤ 0.25 |
| DVEV | ≤ 0.25 |
| WRFW | ≤ 0.25 |
| QEWS | 13.4 |
| NNVN | ≤ 0.25 |
| FMAQ | ≤ 0.25 |
| LGSH | ≤ 0.25 |
| QYQW | ≤ 0.25 |
| NNAQ | ≤ 0.25 |
| EPHN | ≤ 0.25 |
| WGAW | ≤ 0.25 |
| IVIM | ≤ 0.25 |
| IMMI | ≤ 0.25 |
| TMVQ | ≤ 0.25 |
| NRII | ≤ 0.25 |
| FATW | ≤ 0.25 |
| DMCS | ≤ 0.25 |
| DPPY | ≤ 0.25 |
| NSHD | ≤ 0.25 |
| LRGS | ≤ 0.25 |
| NMQS | ≤ 0.25 |

| Variant | enrichment ratio |
| --- | --- |
| FRFR | ≤ 0.25 |
| SYGN | ≤ 0.25 |
| YWFI | ≤ 0.25 |
| KIWD | ≤ 0.25 |
| LANC | ≤ 0.25 |
| SMCE | 11.7 |
| ERVF | ≤ 0.25 |
| YDPC | ≤ 0.25 |
| NPQY | ≤ 0.25 |
| GSDA | ≤ 0.25 |
| KTIY | ≤ 0.25 |
| SHQN | ≤ 0.25 |
| EANV | ≤ 0.25 |
| NNLN | ≤ 0.25 |
| SRKM | ≤ 0.25 |
| SYNC | ≤ 0.25 |
| VKPV | ≤ 0.25 |
| RSGI | ≤ 0.25 |
| LWRP | ≤ 0.25 |
| MHRY | ≤ 0.25 |
| VHSI | ≤ 0.25 |
| GTCM | 5.28 |
| QVMG | ≤ 0.25 |
| PKKV | ≤ 0.25 |

| Variant | enrichment ratio |
| --- | --- |
| TPTG | ≤ 0.25 |
| EMCP | ≤ 0.25 |
| QYMG | ≤ 0.25 |
| ELQA | ≤ 0.25 |
| HWRR | ≤ 0.25 |
| LVLL | ≤ 0.25 |
| WEGF | ≤ 0.25 |
| FKNI | ≤ 0.25 |
| PKPH | ≤ 0.25 |
| LLGR | ≤ 0.25 |
| TQCI | 16 |
| YHFD | ≤ 0.25 |
| KFLL | ≤ 0.25 |
| VNMI | 5.18 |
| KCLS | ≤ 0.25 |
| NVWM | ≤ 0.25 |
| PFGQ | ≤ 0.25 |
| QYCS | ≤ 0.25 |
| KQHY | ≤ 0.25 |
| DIYC | ≤ 0.25 |
| WVKL | ≤ 0.25 |
| NPSR | ≤ 0.25 |
| KACA | ≤ 0.25 |
| KFSI | ≤ 0.25 |

| Variant | enrichment ratio |
| --- | --- |
| PDCP | ≤ 0.25 |
| SNPS | ≤ 0.25 |
| RPCS | ≤ 0.25 |
| RCQD | ≤ 0.25 |
| HQPF | ≤ 0.25 |
| VEQC | 4.21 |
| YTSR | ≤ 0.25 |
| PSMF | ≤ 0.25 |
| HGCW | ≤ 0.25 |
| QDWC | ≤ 0.25 |
| FKKK | ≤ 0.25 |
| TSQL | 14 |
| IKAY | ≤ 0.25 |
| FPPE | ≤ 0.25 |
| WDWF | ≤ 0.25 |
| AWNS | ≤ 0.25 |
| TMKM | ≤ 0.25 |
| YALW | ≤ 0.25 |
| KHDT | ≤ 0.25 |
| PMRV | ≤ 0.25 |
| ETDA | ≤ 0.25 |
| DLWN | ≤ 0.25 |
| QNKF | ≤ 0.25 |
| AHMI | ≤ 0.25 |

| Variant | enrichment ratio |
| --- | --- |
| ATHN | ≤ 0.25 |
| AMAF | 9.64 |
| VGNR | ≤ 0.25 |
| NNYT | ≤ 0.25 |
| AIFG | ≤ 0.25 |
| GTGK | ≤ 0.25 |
| NQIP | ≤ 0.25 |
| QLAL | 1.62 |
| TEAA | 2.61 |
| WYFQ | ≤ 0.25 |
| TKMG | 7.64 |
| YQFK | ≤ 0.25 |
| WYGG | 0.907 |
| DTEM | ≤ 0.25 |
| HITG | ≤ 0.25 |
| IVTV | ≤ 0.25 |
| YFRK | ≤ 0.25 |
| FNSK | ≤ 0.25 |
| PRQY | ≤ 0.25 |
| VLYW | ≤ 0.25 |
| MPYG | ≤ 0.25 |
| MGHN | ≤ 0.25 |
| MELP | ≤ 0.25 |
| PHMV | ≤ 0.25 |

| Variant | enrichment ratio |
| --- | --- |
| AFTY | ≤ 0.25 |
| QGDF | ≤ 0.25 |
| YVLP | ≤ 0.25 |
| ARET | ≤ 0.25 |
| KTCS | ≤ 0.25 |
| FTGR | ≤ 0.25 |
| TESV | 26.1 |
| GQIP | ≤ 0.25 |
| TKHE | ≤ 0.25 |
| TFLK | ≤ 0.25 |
| NEIG | ≤ 0.25 |
| HAVW | ≤ 0.25 |
| TSRM | ≤ 0.25 |
| ITSP | ≤ 0.25 |
| KVKV | ≤ 0.25 |
| TQKW | ≤ 0.25 |
| TGVE | ≤ 0.25 |
| VRNN | ≤ 0.25 |
| LWAN | ≤ 0.25 |
| PNET | ≤ 0.25 |
| YLKW | ≤ 0.25 |
| LCCA | ≤ 0.25 |
| GWVD | ≤ 0.25 |
| GYDH | ≤ 0.25 |

| Variant | enrichment ratio |
| --- | --- |
| QLPP | ≤ 0.25 |
| WPCQ | ≤ 0.25 |
| VDIV | ≤ 0.25 |
| EDGY | ≤ 0.25 |
| RCFL | 0.39 |
| LRMP | ≤ 0.25 |
| MALY | 0.548 |
| KAES | ≤ 0.25 |
| HLLN | ≤ 0.25 |
| YETR | ≤ 0.25 |
| LPHW | ≤ 0.25 |
| KCMH | ≤ 0.25 |
| SYAQ | ≤ 0.25 |
| RTPK | ≤ 0.25 |
| RMAT | ≤ 0.25 |
| FCLT | 1.39 |
| YVSQ | ≤ 0.25 |
| SDRR | ≤ 0.25 |
| INED | ≤ 0.25 |
| ICKV | ≤ 0.25 |
| SMRQ | ≤ 0.25 |
| MEYE | ≤ 0.25 |
| PPPH | ≤ 0.25 |
| PIYH | ≤ 0.25 |

| Variant | enrichment ratio |
| --- | --- |
| KRGR | ≤ 0.25 |
| THLW | ≤ 0.25 |
| IGSY | ≤ 0.25 |
| GIAY | 4.02 |
| NMCH | ≤ 0.25 |
| TQPS | ≤ 0.25 |
| ISSV | 0.418 |
| FQNG | ≤ 0.25 |
| WNSA | ≤ 0.25 |
| NDPI | ≤ 0.25 |
| AFWK | ≤ 0.25 |
| HKLV | 0.341 |
| SDLS | 5.57 |
| PGRM | ≤ 0.25 |
| TWSE | ≤ 0.25 |
| SKHM | ≤ 0.25 |
| YSMD | ≤ 0.25 |
| IQSQ | ≤ 0.25 |
